Laboratory results as given in PMC4336329 (PLoS ONE, 2015).
Hit rate of the full screen: of about 310,000 compounds, about 14,000 (4.5%) showed an effect of 50% or more. Effects have a minus sign here. The list shows a part of the results.

target: human ether-à-go-go-related gene (hERG) potassium channel (human, UniProt Q12809); experiment: primary screen, population patch clamp on CHO cells stably expressing hERG
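Further: peak tail current of the secondary pulse compared with the same well before compound.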

human ether-à-go-go-related gene (hERG) potassium channel, sequence (Q12809 whole entry, looked up): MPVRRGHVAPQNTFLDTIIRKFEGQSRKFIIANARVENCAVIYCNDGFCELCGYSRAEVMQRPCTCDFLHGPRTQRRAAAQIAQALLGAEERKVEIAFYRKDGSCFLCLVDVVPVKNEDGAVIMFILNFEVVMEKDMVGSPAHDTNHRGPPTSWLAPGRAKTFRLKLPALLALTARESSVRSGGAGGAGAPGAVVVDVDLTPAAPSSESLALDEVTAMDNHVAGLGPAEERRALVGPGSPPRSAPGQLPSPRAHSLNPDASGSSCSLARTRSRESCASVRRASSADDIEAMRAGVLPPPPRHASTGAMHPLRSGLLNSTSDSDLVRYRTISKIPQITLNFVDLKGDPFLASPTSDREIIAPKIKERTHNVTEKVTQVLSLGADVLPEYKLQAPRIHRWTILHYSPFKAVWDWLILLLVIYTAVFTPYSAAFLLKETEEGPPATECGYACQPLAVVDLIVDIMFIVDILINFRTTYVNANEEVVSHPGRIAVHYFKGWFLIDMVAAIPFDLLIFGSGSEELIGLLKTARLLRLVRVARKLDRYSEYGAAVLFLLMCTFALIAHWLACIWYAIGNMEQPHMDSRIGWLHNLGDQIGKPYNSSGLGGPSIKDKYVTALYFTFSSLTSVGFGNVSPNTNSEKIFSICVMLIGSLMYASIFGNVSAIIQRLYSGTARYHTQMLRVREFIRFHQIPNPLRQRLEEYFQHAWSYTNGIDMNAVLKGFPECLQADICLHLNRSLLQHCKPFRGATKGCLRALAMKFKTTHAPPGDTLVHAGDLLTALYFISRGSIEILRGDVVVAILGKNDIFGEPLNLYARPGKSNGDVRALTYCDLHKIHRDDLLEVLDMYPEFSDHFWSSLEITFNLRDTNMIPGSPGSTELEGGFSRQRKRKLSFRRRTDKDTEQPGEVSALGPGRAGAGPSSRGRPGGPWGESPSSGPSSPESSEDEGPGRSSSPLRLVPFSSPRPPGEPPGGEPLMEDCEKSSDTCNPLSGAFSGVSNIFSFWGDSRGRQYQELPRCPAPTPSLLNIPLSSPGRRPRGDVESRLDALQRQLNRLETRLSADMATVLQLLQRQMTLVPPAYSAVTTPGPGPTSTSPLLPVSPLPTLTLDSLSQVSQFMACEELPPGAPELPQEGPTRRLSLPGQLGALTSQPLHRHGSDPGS

In order of rising “hERG current change (%, negative = inhibition) at 10uM” value:
1. CCOc1cccc(CN2CCC(CCC(=O)NC3CC3)CC2)c1O  -70.3%
2. CCn1c(SCC(=O)N/N=C/C=C\c2ccccc2[N+](=O)[O-])nc2ccccc21  -63.8%
3. O=C(NCc1ccc(Cl)cc1)C1CCN(c2cnccn2)CC1  -59.9%
4. CC1CCc2sc(C(=O)NC3CCN(Cc4ccccc4)CC3)cc2C1 (stereo not shown)  -54.1%
5. Cc1ccc(OCC(O)CN2CC3(C)CC2CC(C)(C)C3)cc1.O=C(O)C(=O)O (stereo not shown)  -53.6%
6. CCCOc1ccc(N2CC(C(=O)NC3=NCCS3)CC2=O)cc1 (stereo not shown)  -49.7%
7. O=C(c1ccc(Cl)c([N+](=O)[O-])c1)N1CCN(C(=O)c2ccco2)CC1  -41.6%
8. O=C(Nc1ccccc1N1CCCC1)c1ccc(Cl)c(S(=O)(=O)N2CCOCC2)c1  -41.4%
9. Cc1cnc(C(=O)N2CCc3c([nH]c4ccccc34)C2c2ccc(F)cc2)cn1 (stereo not shown)  -39.8%
10. CN(Cc1nc(-c2cccnc2)no1)S(=O)(=O)c1ccc2ccccc2c1  -36.4%
11. CCCCN(CCCC)CP(=O)(c1ccccc1)c1ccccc1  -30.5%
12. CN(C)C=NC1=NN(c2cccc(C(F)(F)F)c2)CC1  -27.2%
13. Cc1ccc(N2CC(C(=O)Nc3ccc(C)c(S(=O)(=O)N(C)C)c3)CC2=O)cc1 (stereo not shown)  -25.2%
14. O=C1CCc2cc(S(=O)(=O)NCc3ccccc3Cl)ccc2N1  -23.4%
15. COCCNC(=O)CCSCc1ccccc1F  -21.6%
16. O=C1CC2C(=O)NCCN2C(=NC(=O)c2ccc(Cl)cc2)N1 (stereo not shown)  -15.7%
17. C=CCOc1ccc(C(=O)N(Cc2ccc(N(C)C)cc2)C2CCS(=O)(=O)C2)cc1 (stereo not shown)  -15.3%
18. C/C(CC(=O)Nc1ccc(Cl)cc1Cl)=N\NC(N)=S  -14.3%
19. COc1cccc(NC(=O)Nc2cc(C)ccc2F)c1  -14%
20. CCC/C(O)=C1\C(=O)CC(C)(C)CC1=Nc1ccccc1OC  -13.4%
21. CC(C)c1ccc(NC(=O)N2CCN(S(=O)(=O)c3ccccc3)CC2)cc1  -11.7%
22. O=C(CSc1cn(CCNC(=O)c2ccccc2)c2ccccc12)NCC1CCCO1 (stereo not shown)  -10.9%
23. COC(=O)CN1C(=O)[C@H]2[C@@H](/C=C/c3ccccc3)N3C(=O)CN(Cc4ccccc4)C(=O)[C@@]3(Cc3ccccc3)[C@H]2C1=O  -10.8%
24. COC(=O)C1=C(C)NC(=O)CC1c1cccc(OC)c1OC (stereo not shown)  -8.79%
25. c1ccc(CCSc2nccn2-c2ccccc2)cc1  -8.04%
26. CCc1c(C(=O)N2CCCN(C)CC2)csc1C  -5.55%
27. COc1cc(/C=C(\NC(C)=O)C(=O)NC(C)(C)CC(C)(C)C)ccc1OC(C)=O  -5.22%
28. COc1ccc(NC(=O)CN(C)CC(=O)Nc2ccc3c(c2)CCC3)cc1  -5.02%
29. Cc1cc(-c2cc(-c3ccc(Cl)cc3)on2)nc(NC2CCCC2)n1  -4.86%
30. CN(c1ccc(C(=O)NC2CCCCC2)cc1)S(=O)(=O)c1ccccc1  -4.03%
31. COc1ccc(-c2coc3c(C)c4oc(=O)c(CCC(=O)O)c(C)c4cc23)cc1  -2.26%
32. Cn1nnnc1SCC(=O)Nc1ccc(C(=O)N2CCN(Cc3ccccc3F)CC2)cc1  -2.12%
33. O=C(O)c1cc(/C=C/C(=O)c2cc(F)ccc2O)c2c(c1)COCO2  -1.67%
34. c1ccc(OCCCc2nc(-c3ccncc3)no2)cc1  -1.66%
35. CC(=O)NC1=NN(C(C)=O)C(c2ccccn2)S1 (stereo not shown)  -0.717%
36. NS(=O)(=O)c1ccc(NC(=S)N2CCN(Cc3ccc(Cl)c(Cl)c3)CC2)cc1  -0.0378%
37. C#CCOCCOCCOCCNc1nc(N2CCN(C(=O)[C@H]([C@@H](C)CC)n3cc([C@@H](N)Cc4ccc(O)cc4)nn3)CC2)nc(N2CCN(C(=O)[C@H](CCCCN)n3cc([C@@H](N)C(C)CC)nn3)CC2)n1.Cl (stereo partly shown)  0.064%
38. CCCNC(=O)c1oc2ccc3c(c2c1C)C=CC(C)(C)O3  0.704%
39. N#C/C(=C\c1cccs1)c1nc2ccccc2[nH]1  1.05%
40. CC1(CC(=O)N/N=C/c2ccc(-c3ccc(Cl)cc3)o2)OCCO1  1.13%
41. O=C(O)Cc1ccc(S(=O)(=O)Nc2ccccc2C(=O)O)cc1  1.27%
42. CC(=O)N1CCCc2cc(S(=O)(=O)N3CCCC(C(=O)N4CCN(c5cccc(Cl)c5)CC4)C3)ccc21 (stereo not shown)  1.99%
43. COc1ccc(-c2[nH]ncc2/C=C(/C#N)C(=O)NC2CCCCC2)cc1  2.85%
44. CCc1nc(CNC(=O)c2cc(OC)c(OC)c(OC)c2)no1  4.02%
45. COc1ccc(Cl)cc1NC(=O)CN(C)CC(=O)Nc1ccc(S(N)(=O)=O)cc1  4.44%
46. Cc1cc2nc(SCCOC(=O)Nc3cccc(Cl)c3)nc(C)c2cc1C  4.69%
47. CC(=O)C1=NN(c2ccccc2)C2(S1)S/C(=C\c1ccccc1)C(=O)N2c1ccccc1 (stereo not shown)  5.09%
48. Cc1ccc(C(=O)n2c(-c3ccccc3)cnc2SCC(=O)Nc2ccc(C)cc2C)cc1  5.33%
49. CCOC(=O)NC(=O)CSc1nc(C)cc(C)c1C#N  5.47%
50. COC(=O)CC1NCCc2cc(OC)c(OC)cc21 (stereo not shown)  5.67%
51. O=C(NCc1ccccn1)c1cccc(NS(=O)(=O)c2ccccc2)c1  6.73%
52. COc1ccc(NC(=O)CN(C)C(=O)c2cc(C)on2)cc1  6.97%
53. CCn1cc(SCC(=O)N2CCOCC2)c2ccccc21  8.42%
54. CCC(C)c1ccccc1NC(=O)CN(C)CCOc1ccc(Cl)cc1 (stereo not shown)  9.29%
55. O=[N+]([O-])c1cccc(/C=C/C=N/Nc2nc(N3CCCCC3)nc(N3CCCCC3)n2)c1  9.47%
56. O=C(COc1ccccc1Cl)NNC(=O)c1cc(S(=O)(=O)N2CCOCC2)ccc1N1CCCC1  9.55%
57. O=C(N/N=C/c1cccnc1)c1ccc(NC(=O)c2ccc(Cl)cc2)cc1  9.58%
58. O=C(COc1ccc2ccc(=O)oc2c1)Nc1cccnc1  10.6%
59. O=C(CC(C(=O)O)c1ccc(Cl)cc1Cl)c1ccc(Cl)cc1 (stereo not shown)  11.4%
60. CCOC(=O)c1oc2nc3c(cc2c1N)COC(C)(C)C3  11.5%
61. COCCNC(=O)c1ccc2c(c1)NC(=O)CS2  11.6%
62. CCc1nc(SCC(=O)Nc2nccs2)c2oc3ccccc3c2n1  11.8%
63. CN1CC[C@]23c4ccccc4N[C@H]1[C@]21CCN(C)[C@H]3Nc2ccccc21  12.3%
64. CC(=O)c1ccc(NC(=O)C(NC(=O)c2ccccc2)=C(C)C)cc1  12.8%
65. Cn1cc(S(=O)(=O)c2ccccc2)n(C)c1=O  12.8%
66. CCN(C(=O)COC(=O)CCS(=O)(=O)c1ccc(C)cc1)C1CCS(=O)(=O)C1 (stereo not shown)  12.9%
67. CCN(C(=S)Nc1cccc(C)c1)c1ccccc1  13.2%
68. COc1ccc(C(C(=O)NC(C)(C)C)N(C(=O)CCC(=O)Nc2cc(C)on2)c2ccc3c(c2)OCCO3)cc1 (stereo not shown)  13.4%
69. CCOC(=O)CN(c1ccccn1)S(=O)(=O)c1ccc(OC)cc1  15.3%
70. Cc1cccc(NC(=O)c2ccc(S(=O)(=O)N3CCCC3)cc2)c1C  15.4%
71. O=C(CSc1ccsc1[N+](=O)[O-])NCCc1ccc(Cl)cc1  15.6%
72. CC(=O)Oc1ccc2c(C)cc(=O)oc2c1C(=O)c1ccccc1  15.7%
73. Cn1nnnc1SCC1=C(C(=O)[O-])N2C(=O)[C@@H](NC(=O)[C@H](O)c3ccccc3)[C@H]2SC1.[Na+]  16.1%
74. COc1ccc([N+](=O)[O-])cc1NC(=O)CCN1CCN(C)CC1  16.3%
75. CC(=O)c1c(O)cc(=O)oc1-c1ccc(C)cc1  16.7%
76. Oc1csc(Cc2nc(-c3ccc(Br)cc3)cs2)n1  16.7%
77. Cc1cc(=O)oc2cc(OCC(=O)N3CC(C)OC(C)C3)ccc12 (stereo not shown)  16.7%
78. CC(=O)Nc1ccc(OCC(O)Cn2cccn2)cc1 (stereo not shown)  17.3%
79. COc1cccc(-c2ncc3ccccc3c2COC(=O)c2ccc(Br)cc2)c1  17.6%
80. Nc1cc2nc3ccccc3nc2cc1N  18.5%
81. O=c1[nH]cnc2c1cnn2Cc1ccccc1  20.7%
82. COc1ccc(C)cc1S(=O)(=O)N(C)CC(=O)N1CCC(C)CC1  22.8%
83. Cc1cc(C)nc(NC(=O)c2ccc(COc3ccccc3Cl)cc2)c1  24.5%
84. NS(=O)(=O)c1ccc(CNC(=O)CNC(=O)Cc2ccccc2)cc1  25%
85. COc1ccc(C)cc1Nc1n[n+](C)c(-c2ccc(O)cc2O)s1.[Cl-]  38.7%
